The whole screen tested about 120,000 compounds, of which about 5,300 (4.4%) were called active. This list was built around the results that the source calls inconclusive (neither active nor inactive); the mix of calls is not that of the screen. The call rests on the fitted dose curve; in most records, active means well fitted inhibition curve with a large enough effect; inconclusive means small, poorly fitted or top-dose-only effect; inactive means no such curve, though single readings can be large or run the other way. Where the call is inconclusive, the potency comes from a doubtful curve fit.
Experiment: qHTS Primary assay for Inhibitors of Plasmodium falciparum Dd2 growth in vitro; further: nearly all actives have a fitted effect of over 65% in size;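 on activity, negative = inhibition: plate controls were DMSO vehicle for no effect and reference drug for full effect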
Settings: P. falciparum Dd2 growth, SYBR Green, 72 h; activity, negative = inhibition: at 28.9 µM (top of the series) unless noted; series mostly up to 28.9 µM
Method in brief: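 Infected erythrocytes (Dd2, 0.3% parasitemia, 2.5% hematocrit final) are added to compound in RPMI-1640/Albumax II medium, grown 72 h at 37C in low oxygen, then lysed with saponin/Triton-X containing SYBR Green and read by fluorescence.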
Potency means the concentration at half of the fitted maximal effect; tags describe the fitted curve by direction and shape.

SMILES | outcome | Potency | activity, negative = inhibition
O=C1c2c(-c3nc(-c4ccsc4)no3)nnn2CCN1Cc1ccc(F)cc1 | inactive |  | 
CCOC(=O)c1c(NC(=O)c2cc(C(C)C)on2)sc(C(C)=O)c1C |  | inconclusive: 1.12 µM [inhibitor, full curve] | 
CCOCc1nc(C2CCCN(C(=O)c3cccc(F)c3)C2)no1 (stereo unspecified) |  |  | inactive: -10.8%
Cc1ccc(-c2nc3nc(C)cc(N4CCN(c5cccc(C)c5C)CC4)n3n2)cc1 |  |  | inactive: -17%
CN(C)c1ccc(CN(Cc2ccco2)C(=O)c2ccc(C(C)(C)C)cc2)cc1 |  | inconclusive: 17.8 µM [inhibitor, single point] | 
O=C(CCC[C@H]1NC[C@@H]2C[C@H]1CN(Cc1ccccc1)C2)NCCc1cccnc1 |  | inconclusive: 20 µM [inhibitor, single point] | 
O=C(O)COCC(=O)N1CC[C@H]2COC(=O)N2c2cc(F)ccc2C1 |  |  | inactive: -0.132% [at 44.1 µM]
O=C(C1CCCC1)N1CCC2(CC1)CC(N(C(=O)c1ccccc1)C1CC1)CCO2 (stereo unspecified) | inactive |  | 
NCc1cccc(-c2ccc3c(c2)C(=O)N2CC[C@H](NC(=O)NC4CCCCC4)[C@H]2C(=O)N3)c1 |  |  | inactive: -9.14%
O=C(CSc1nc2cc(C(=O)NC3CCCC3)ccc2c(=O)n1CC1CCCO1)c1cccc(Cl)c1 (stereo unspecified) |  | active: 10 µM | 
CNC(=O)CCn1ncc2cc(OCc3ccccc3-c3ccccc3C)ccc21 |  | inconclusive: 5.01 µM [inhibitor, partial curve, poor fit] | 
CCOC(=O)c1ccc(N2C(=O)c3n[nH]c(-c4cccs4)c3C2c2ccc(OCC)cc2)cc1 (stereo unspecified) |  | inconclusive: 1.26 µM [inhibitor, single point] | 
COc1ccc([S+](=O)([O-])N2CCC3(CC2)OCCN(CCc2ccccc2)C3=O)cc1 |  | inconclusive: 1 µM [inhibitor, full curve, poor fit] | 
COc1ccc(C(=O)N[C@@H]2C[C@H](COc3cccc(C)n3)[C@@H](O)[C@H]2O)cc1 |  | inconclusive: 35.5 µM [inhibitor, single point] | 
O=C(NCC1CCCO1)c1ccc2oc(-c3ccc(C(F)(F)F)cc3)nc2c1 (stereo unspecified) |  |  | inactive: -6.73%
COc1ccc(OC)c(NS(=O)(=O)c2cc3c(cc2Cl)N(C(C)=O)CCO3)c1 |  | inconclusive: 10 µM [inhibitor, single point] | 
CN(Cc1ccc(F)cc1)S(C)(=O)=O |  |  | inactive: 7.49% [at 44.1 µM]
O=C(CC[C@H]1NC(=O)c2ccccc2NC1=O)NCCc1ccncc1 |  |  | inactive: 5.97%
NC(=O)[C@@H]1CN(C(=O)c2ccccc2)C[C@H]1COc1ccccc1 |  |  | inactive: -18.6%
COc1ccc(CC(=O)NC[C@@H]2C=C(C)[C@H](Cc3nc4ccncc4[nH]3)C[C@H]2C(C)C)cc1 | inactive |  | 
Cc1ccccc1-c1noc(-c2ccc(N3CCCCC3)c([N+](=O)[O-])c2)n1 | inactive |  | 
CCCCN(CC)CCCNC(=O)CS(=O)(=O)Cc1nc(-c2ccc(C)cc2)oc1C |  | inconclusive: 17.8 µM [inhibitor, single point] | 
O=C(CCC1CCCN(Cc2cccnc2)C1)Nc1ccccc1F (stereo unspecified) |  |  | inactive: -22%

SMILES | outcome | Potency | activity, negative = inhibition
O=C1NC[C@H]2CN(CCCc3ccccc3)CCN12 |  |  | inactive: -14.2% [at 44.1 µM]
O=C1N(C2CCN(Cc3ccccn3)CC2)C(c2ccncc2)C12CCCCC2 (stereo unspecified) |  | inconclusive: 2.82 µM [inhibitor, full curve, poor fit] | 
O=C1Nc2ccccc2CC12CCN(Cc1ccc(OC(F)(F)F)cc1)CC2 |  | inconclusive: 8.91 µM [inhibitor, single point] | 
Cn1cc(CNC(=O)C[C@@H]2C[C@H]3O[C@H](CNC(=O)N4CCOCC4)[C@@H](O)[C@H]3O2)cn1 |  |  | inactive: -27% [at 44.1 µM]
CC(C)C(=O)Nc1ccc2nc(SCC(=O)N3CCCC3)sc2c1 |  | inconclusive: 17.8 µM [inhibitor, single point] | 
Fc1ccc(F)c(CN2CCC(Oc3ccccc3-c3nc(C4CCOCC4)no3)C2)c1 (stereo unspecified) |  | active: 4.47 µM | 
Cc1cc(Cl)ccc1-c1ccc(CN)cc1 |  | inconclusive: 12.6 µM [inhibitor, single point] | 
CCOc1ccc(C(=O)NCc2ccc3c(c2)CCN3C(=O)c2ccc(Cl)cc2)cc1 |  | inconclusive: 3.98 µM [inhibitor, single point] | 
Cc1cccc(-n2ncc(C(=O)N3CCOCC3)c2C2CCN(C(=O)OC(C)(C)C)CC2)c1 |  |  | inactive: 21%
CN1C(=O)C(c2ccccc2)CC12CCN(Cc1ccc(F)c(F)c1)CC2 (stereo unspecified) |  | inconclusive: 7.94 µM [inhibitor, single point] | 
COc1ccc(Nc2cnc3ccc(N4CCOCC4)nn23)cn1 | inactive [at 44.1 µM] |  | 
COc1ccc(-c2nc(SCC(=O)NC3CCCC3)c(-c3ccc(F)cc3)[nH]2)cc1 |  | inconclusive: 17.8 µM [inhibitor, single point] | 
Cc1ccccc1C(=O)Nc1nnc(S(=O)(=O)N(C)Cc2ccccc2)s1 |  |  | inactive: 35.4%
COc1ccc(-n2c(-c3ccc(C)cc3)cc3c2CC(C)(C)CC3=O)cc1Cl |  | inconclusive: 17.8 µM [inhibitor, single point] | 
Cc1noc2ncnc(N3CCC4(CC3)CC(c3ccccc3)CN(C)C4)c12 (stereo unspecified) |  | active: 11.2 µM | 
COc1cccc(CN2C[C@@H]3C(=O)N(CCN4CCc5ccccc5C4)C(=O)[C@@H]3C2)c1OC |  | active: 7.08 µM | 
O=C1NC2(CCN(C(=O)c3cccnc3)CC2)Oc2ccccc21 |  | inconclusive: 0.631 µM [inhibitor, full curve, poor fit] | 
CNC(=O)c1cc(-c2ccc(CO)cc2)cc2c1OCCN2Cc1cccnc1 |  |  | inactive: -1.03% [at 44.1 µM]
O=C(c1cc2ccccc2[nH]1)N1CCN(c2cc(-c3ccccc3)[nH]n2)CC1 | inactive |  | 
CC1(c2cccnc2)N(CC2CC2)C(=O)OC12CCN(C(=O)c1cccc(O)c1)CC2 (stereo unspecified) |  | inconclusive: 12.6 µM [inhibitor, partial curve, poor fit] | 
O=C(c1cnccn1)N1CCc2[nH]nc(C(c3ccccc3)c3ccccc3)c2C1 |  | inconclusive: 12.6 µM [inhibitor, single point] | 
COc1ccc(CN2CCCCCNC(=O)CC2c2ccccc2)cc1Cc1c(C)noc1C (stereo unspecified) |  | inconclusive: 2.51 µM [inhibitor, partial curve, poor fit] | 
COCCCn1c(C)cc(C(=O)N2CCC(CCOc3ccccc3)C2)c1C (stereo unspecified) |  | inconclusive: 1.26 µM [inhibitor, partial curve, poor fit] | 
